# Assay results: the supplement of paper PMC10126150
# Sequences with one replicate were seen in a single cluster, so their values are uncertain.
# System: ATP
# Test: switch fluorescence ratio, 500 uM ATP over buffer (Cy3 cluster intensity, sum of 5 cycles each) (fold (ratio)); higher = stronger signal-on switching upon ATP binding; sequences stand for … in TCGTCGGCAGCGTCAGATGTGTATAAGAGACAGTTTTTTTTTTTTTTTTTTTTTTTTT…TC
# Settings: aptamer strand: ATP DNA aptamer (quencher-CACCTGGGGGAGTATTGCGGAGGAAGG + anchor), 100 nM annealed; ATP concentration: 500 uM; one replicate
# How it was run: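 The quencher-labelled ATP aptamer, at 100 nM, was annealed to Cy3-labelled switching-strand clusters on a modified Illumina MiSeq flow-cell. The clusters were imaged in selection buffer, then after 15 min with 500 uM ATP at 22 °C, and this buffer/ATP cycle ran five times with NaOH stripping and re-annealing between runs. Per-cluster fluorescence ratios, summed target-cycle over summed buffer-cycle Cy3 intensity, were averaged per switch-domain sequence. Clusters outside 100-1000 RFU were excluded.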
# 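Note: ATP exposure 15 min at 22 °C before imaging.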
row,Sequence,switch fluorescence ratio
1,AATAGGA,0.977
2,CGCGAGTCGC,1.03
3,GACATAACTG,0.946
4,TAGACCACC,1.15
5,AAGCAGCCTG,1.01
6,CTCTTACTTG,1
7,GGGAAAGCCT,1.12
8,TCATAAAGTA,1.01
9,AGACGATGGG,0.963
10,GACGAGATGG,1.02
11,AGTTTGC,0.973
12,AAGTTGATAT,1
13,ACATAACGTG,1.14
14,TCATTGGTCA,0.988
15,GGATGACGGT,0.977
16,ATCATAGGGC,1.24
17,GTGTCGTAGG,1.02
18,AAGGAGTCGT,1.02
19,TAGAATTTGT,0.966
20,CGTTTATTCG,0.987
21,TTTGACGAA,0.988
22,AATTAAGAGT,1
23,GGGCCGGATC,0.962

row,Sequence,switch fluorescence ratio
1,CACTGGTACA,1.17
2,ATAGCGTGCT,1.01
3,ATGTTTGGCA,1.02
4,TACAGACGTC,1.06
5,TCAGTCGTTT,1.06
6,CGGGGGCTTA,1.04
7,GGTCCAATCG,1.02
8,TGCAGTGCTT,1.03
9,TCGTGTGTTT,1.01
10,AGTTACTTGT,0.978
11,AAATGTCCCT,1.04
12,CACATTGTGT,1.06
13,CTGATGTAGA,0.997
14,CACAGCTAGG,1.03
15,TATATGCGGC,0.922
16,GCAACCCCGG,1.08
17,ACACTTAATA,1.06
18,GGGTAACTCG,0.939
19,GAGGGAAACC,0.937
20,CACGTACTCT,1.54
21,TAGCAATAAT,4
22,GAAGACAGGG,1.01
23,CCGAGACGGG,1.09

row,Sequence,switch fluorescence ratio
1,TACAAGTGCC,1.04
2,GGTAATAGGT,0.967
3,AGCTGATTAT,0.97
4,GATGGTGTT,1
5,GAAAGTAGAC,1.02
6,ACCGTCACTT,1.31
7,ATTCGCTTT,0.989
8,TACGCTATAT,2.36
9,TAGTGAGTGA,1.01
10,TTTCGCTAGA,1.01
11,GATTGAACTT,1.03
12,CCGTGACTAT,1.12
13,GGTTGTGATT,0.999
14,TAGTGGAACA,0.965
15,TCTGTTTACA,0.964
16,CGGGAAATAA,1.06
17,CGTTGTGCGT,1
18,AGCATTTACT,1.39
19,GGATTGGTTA,0.965
20,AAGATGTCTG,0.98
21,CGACCGGGTC,0.989
22,CAAGGATACG,1.02
23,AGTGCCA,0.966

row,Sequence,switch fluorescence ratio
1,TGCCATGTAT,0.959
2,TTGTACCGCT,1.14
3,GCCAGTTAAG,0.98
4,TACAGGTAAC,1.06
5,GTTGTTTGAG,0.954
6,GCACGCTCTA,1.09
7,GCATCGAATT,1.07
8,TAGCCGTCTC,1.06
9,ATAGCTTACT,1.21
10,GTTATGTAAA,0.969
11,TCGTAGTATG,1.01
12,CAATTTCCGT,0.988
13,TTCTCCTGCA,2.83
14,TGAGGCCGCT,1.02
15,ATTAGCGAAA,1
16,CCCTTATTAG,1.02
17,CTTCGCTGTT,1.12
18,AACCGAAGTC,1.19
19,AGATGACGCT,1.02
20,TAAGCAATTT,1.07
21,AGAGCTTTTC,1
22,TATGAACGGT,0.949
23,CGATCAGAAT,0.997

row,Sequence,switch fluorescence ratio
1,CGAGCGTTAT,1.28
2,AAGTAAGTC,0.984
3,TGATGGACAC,1.02
4,TTCCTCAGGC,1.11
5,TTCTGGAGC,0.999
6,TCGATCGGTA,1
7,GGTTATCAGT,0.974
8,GAACATGGGG,1.01
9,CTTTTACACC,1.07
10,AGTGTTGAGA,1.03
11,ACGATCATTA,1.09
12,ACGATTACTC,1.38
13,CGATATCCAG,1.03
14,CTCTGTCGGT,1.14
15,GATTGGCAGG,1.02
16,CATAGCTTGG,1
17,GAGTGTTGCG,1.01
18,TGGCTTCTTT,0.994
19,CGTGATGCGT,0.99
20,TGGTCGTCTA,0.966
21,TAGAGATATG,1.01
22,GAGAATATT,0.995
23,CTAGTCAGCG,1

row,Sequence,switch fluorescence ratio
1,AATTAAATGG,1.01
2,CTGGGCATAG,1.19
3,CTACCATGAT,1.05
4,GAGATCTCCT,1.02
5,CTCAATACGG,2.85
6,CTCAGACTTT,0.958
7,TGCGTCAGTC,0.96
8,CTAATAGTCC,1.13
9,ATGACCTTAA,1.05
10,TTAGAACGGC,0.92
11,CGTAATTTAT,0.972
12,GCCAATATGG,1.02
13,GTTCTCGTGG,1.01
14,AATTTATGTT,0.957
15,TCTGAGAAGA,1.01
16,AGCTTTGGAG,1.05
17,GAGCATAAAT,1.04
18,AGTAATCTAC,0.991
19,GAGAACACAG,1.03
20,AAGACTTCCT,1.87
21,GGAAAAAAAA,1.08
22,TAAATGGACA,1.01
23,GAAACCGATT,1.01

row,Sequence,switch fluorescence ratio
1,AAAGTGTCAG,0.999
2,CGCCCTGGT,1.53
3,GTGTTCCGGT,0.985
4,GTTACAGATT,1.03
5,GACGTTTATC,1.06
6,CGATTAGACC,1.03
7,ACTAACTAGG,1.17
8,GTCATATCTG,0.969
9,GGAGGACCAC,0.99
10,TGTCTGAGTA,1.02
11,TAGGGATCAC,0.958
12,CGAGCCTGCA,0.998
13,CGACTGGCGT,1.02
14,AATACCCTTG,1.04
15,GTGGTTGCCT,1.02
16,ATACCTAACA,1.13
17,ATGGGGCCCG,0.971
18,GCTCGGGTGG,0.985
19,CCAGGGGG,1.12
